# Laboratory results published in article PMC4336329 (PLoS ONE, 2015).
# The whole screen tested about 310,000 compounds, of which about 2,200 (0.71%) showed an effect of 50% or more. The effect is printed as a negative number. This is one part of the list.
# Target: human ether-à-go-go-related gene (hERG) potassium channel (human, UniProt Q12809)
# Experiment: primary screen, population patch clamp on CHO cells stably expressing hERG
# Chain of human ether-à-go-go-related gene (hERG) potassium channel (Q12809 whole entry, looked up): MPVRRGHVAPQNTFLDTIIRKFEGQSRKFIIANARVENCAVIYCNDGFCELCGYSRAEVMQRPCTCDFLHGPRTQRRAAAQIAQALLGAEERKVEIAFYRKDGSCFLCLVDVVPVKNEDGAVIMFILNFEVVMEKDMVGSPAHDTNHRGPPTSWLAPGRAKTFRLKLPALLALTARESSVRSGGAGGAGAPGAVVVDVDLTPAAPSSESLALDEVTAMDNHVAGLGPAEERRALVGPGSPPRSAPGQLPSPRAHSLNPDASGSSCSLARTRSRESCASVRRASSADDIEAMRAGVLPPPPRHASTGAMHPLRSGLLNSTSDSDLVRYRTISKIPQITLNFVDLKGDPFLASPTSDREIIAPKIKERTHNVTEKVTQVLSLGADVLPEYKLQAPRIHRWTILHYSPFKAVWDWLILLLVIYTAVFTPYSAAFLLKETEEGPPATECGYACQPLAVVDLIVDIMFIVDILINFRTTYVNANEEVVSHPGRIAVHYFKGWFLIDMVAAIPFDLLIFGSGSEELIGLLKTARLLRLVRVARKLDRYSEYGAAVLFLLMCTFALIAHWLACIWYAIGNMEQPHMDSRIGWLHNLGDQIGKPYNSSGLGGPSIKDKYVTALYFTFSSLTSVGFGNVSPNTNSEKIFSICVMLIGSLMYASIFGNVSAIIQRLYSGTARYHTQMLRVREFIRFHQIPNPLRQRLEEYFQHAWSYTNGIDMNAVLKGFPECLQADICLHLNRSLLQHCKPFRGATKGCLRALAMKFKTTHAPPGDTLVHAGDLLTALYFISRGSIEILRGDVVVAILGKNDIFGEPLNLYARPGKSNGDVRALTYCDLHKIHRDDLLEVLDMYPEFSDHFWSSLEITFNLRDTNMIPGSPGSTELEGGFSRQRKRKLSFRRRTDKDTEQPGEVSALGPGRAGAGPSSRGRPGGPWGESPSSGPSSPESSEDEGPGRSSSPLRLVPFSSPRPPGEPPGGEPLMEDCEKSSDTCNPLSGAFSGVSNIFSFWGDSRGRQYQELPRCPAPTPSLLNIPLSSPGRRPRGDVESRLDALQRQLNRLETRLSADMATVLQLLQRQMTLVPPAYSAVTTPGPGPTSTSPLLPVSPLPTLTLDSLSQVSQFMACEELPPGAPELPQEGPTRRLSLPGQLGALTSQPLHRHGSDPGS
row,Structure (SMILES),"hERG current change (%, negative = inhibition) at 1uM"
1,O=C(c1ccccc1F)c1cn(CC(=O)N2CCCC2)c2ccccc12,6.87%
2,CCOc1ccc(NC(=O)c2ccccc2O)cc1,3.49%
3,CCOc1ccc(N2C(=O)CC(NCCc3c[nH]c4ccccc34)C2=O)cc1 (stereo not shown),8.73%
4,O=[N+]([O-])c1cc(N=Nc2ccc3ccccc3c2)ccc1O,13.3%
5,O=C(NNC(=S)NC(=O)c1ccccc1)c1ccc(O)cc1,14.8%
6,O=C(O/N=C(\c1ccccc1)c1ccncc1)c1ccccc1Cl,21.7%
7,CC(C)(C)NS(=O)(=O)c1ccc(CCC(=O)Nc2ccc3c(c2)OCCO3)cc1,9.63%
8,CC1CC(C)(C)CC2(C1)NC(=O)N(CC(=O)Nc1ccc3[nH]c(=O)[nH]c3c1)C2=O (stereo not shown),1.66%
9,Cn1c(=O)c(C(=O)CN2CCN(S(=O)(=O)c3ccccc3)CC2)c(N)n(Cc2ccccc2)c1=O,9.03%
10,CCOc1ccccc1N1CCN(c2nc3ccccc3nc2C(C#N)C(=O)OC(C)C)CC1 (stereo not shown),12.5%
11,Cc1ccc(N(Cc2cc3ccccc3[nH]c2=O)C(=O)c2ccco2)c(C)c1,-2.17%
12,Cc1ccc(C(=O)NNC(=O)c2ccncc2)cc1[N+](=O)[O-],9.41%
13,Cc1ccc(S(=O)(=O)N2CCN(C(=O)c3ccccn3)CC2)c(C)c1,8.61%
14,Cc1nc(N)sc1C(=O)NN,10.1%
15,Cc1ccc(C)c(-c2ccc(=O)n(Cc3ccc(F)cc3Cl)n2)c1,11.2%
16,N#Cc1ccccc1/C=N/Nc1nc(-c2ccccc2)c2cc(Br)ccc2n1,-10.5%
17,CSCC[C@H](N)C(=O)N1CCC(C(=O)N[C@H](C(=O)NCc2ccccc2F)C(C)C)CC1,3.41%
18,O=c1c2ccccc2ncn1-c1ccc([N+](=O)[O-])c(C(F)(F)F)c1,2.09%
19,Cc1oc(-c2ccc(Cl)cc2)nc1CS(=O)CC(=O)NC(C)c1ccccc1 (stereo not shown),3.54%
20,Cn1cc(/C=C2\SC(=S)N(NC(=O)c3ccccc3Cl)C2=O)c2ccccc21,8.73%
21,CCC(C(=O)Nc1cc(C(=O)Nc2cc(C)ccn2)ccc1Cl)c1ccccc1 (stereo not shown),4.19%
22,COC(=O)C1=C(c2cccc(OC)c2OC)C[C@@H]2CC[C@H]1N2C(=O)N1CCCC1,5.49%

row,Structure (SMILES),"hERG current change (%, negative = inhibition) at 1uM"
1,COC(=O)c1c(NC(=O)COC(=O)Cn2cnc3ccccc32)sc(C)c1C,1.68%
2,NNC(=O)c1ccc(-c2cccc([N+](=O)[O-])c2)o1,13.2%
3,Cc1nn(C)c(C)c1S(=O)(=O)N(CC(=O)NCc1cccs1)c1ccc(C(C)C)cc1,18.9%
4,COc1ccccc1/C=C/C(=O)OC(C)CN1CCOCC1.Cl (stereo not shown),2.8%
5,CCC1(C)Cc2ccccc2-c2nc(NCCO)[nH]c(=O)c21 (stereo not shown),17%
6,CCOc1ccc(CCNC(=O)c2ccc(NC3=NC4CS(=O)(=O)CC4S3)cc2)cc1 (stereo not shown),6.76%
7,Cc1ccccc1OCCOC(=O)c1nc2nccc(C)n2n1,5.54%
8,CC(C)C(=O)N1CCN(c2ccc(NC(=O)c3cccs3)cc2)CC1,19.7%
9,CCOc1ccc(S(=O)(=O)N2CCOCC2)cc1NC(=O)CSCc1ccc(C)cc1,-20.7%
10,COc1ccc(CCc2nnc(NS(C)(=O)=O)s2)cc1,10.2%
11,CCOC(=O)C1CCCc2c1[nH]c1c(C(N)=O)cccc21 (stereo not shown),-3.83%
12,COc1ccc2c(c1)cc1n2CCN=C1NN.Cl.O,20.9%
13,c1ccc2[nH]c(SCc3cscn3)nc2c1,8.86%
14,O=C(CSc1ccc(-c2cccnc2)nn1)Nc1ccc(F)cc1F,5.63%
15,Cc1ccc(S(=O)(=O)CC(=O)Nc2nnc(C(C)(C)C)s2)cc1,12.8%
16,O=C(Cn1cc(C(F)(F)F)ccc1=O)NC(c1ccccc1)c1ccccc1,1.45%
17,CN(CC(=O)Nc1cccc(F)c1)C(=O)CCNC(=O)c1ccc(Br)cc1,2.35%
18,CCOC(=O)C1=C(O)/C(=C/c2ccc(CNC(=O)C(=O)Nc3ccc(C)cc3)o2)N=C1C,12.9%
19,CCc1nc2c(c(=O)c3ccccc3n2C)c(=O)n1CCc1ccc(OC)cc1,-37.7%
20,CCc1c(C)nc2ncnn2c1N1CCC(C(=O)Nc2cccc(C(C)=O)c2)CC1,2.14%
21,Cc1ccc(NCc2ccccc2)cc1,13.5%
